Results taken from PubChem BioAssay AID485364 (National Center for Advancing Translational Sciences (NCATS), 2010).
In all, about 360,000 compounds went through this assay and about 11,000 (3.1%) were called active. This list was built around the results that the source calls inconclusive (neither active nor inactive); the mix of calls is not that of the screen. Calls come from the whole dose curve; as a rule, active = well fitted inhibition curve with a large enough effect; inconclusive = small, poorly fitted or top-dose-only effect; inactive = no such curve, though single readings can be large or run the other way. Potencies of inconclusive entries are left out as doubtful fits.

The compounds below were run against Schistosoma mansoni thioredoxin glutathione reductase (TGR) (UniProt Q962Y6) (assay: qHTS Assay for the Inhibitors of Schistosoma Mansoni Peroxiredoxins). Conditions: purified TGR, DTNB reduction, TNB absorbance 405 nm; activity change, negative = inhibition: at 114 µM (top of the series) unless noted.
Procedure, shortened: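 First, TGR (20 nM dispensed) and NADPH were mixed with compound. Second, a 15 min room-temperature incubation followed. Third, further NADPH and then DTNB were added to start the reaction. Finally, TNB absorbance was monitored kinetically.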
% is set by controls: 0 for no effect and ±100 for the full control effect; potency is the fitted concentration of half-maximal effect; tags give direction and shape of the fitted curve.
Note: nearly all actives have a fitted effect of over 60% in size.

Row | Compound | activity change, negative = inhibition | Potency
1 | O=c1[nH]c(SCc2cccc(Cl)c2)nc2[nH]ncc12 | inactive: 0.331% | 
2 | Cc1ccc(S(=O)(=O)CC(C)N2CCOCC2)c(S(=O)(=O)CC(C)N2CCOCC2)c1 (stereo not drawn) |  | inconclusive [inhibitor, single point]
3 | COc1ccccc1C(=O)NCCN1CCN(C(=O)c2ccccc2OC)CC1 |  | inconclusive [inhibitor, partial curve]
4 | CCOC(=O)C(=Cc1cc(=O)c(OC)co1)C(=O)OCC |  | inconclusive [inhibitor, partial curve]
5 | O=c1[nH]c(=S)[nH]c2c1C(c1ccc(Br)cc1)c1c([nH]c(=S)[nH]c1=O)O2 |  | inconclusive [inhibitor, partial curve]
6 | O=C(CSc1nnc(-c2ccccc2O)o1)Oc1ccc(OCc2ccccc2)cc1 |  | inconclusive [inhibitor, single point]
7 | O=C(COc1coc(CN2CCc3ccccc3C2)cc1=O)Nc1cccc(Cl)c1 | inactive: -1.52% | 
8 | CCOc1ccccc1-n1nnnc1SCC(=O)NC(=O)NCc1ccco1 |  | active: 44.7 µM
9 | CCOC(=O)Cc1csc(NC(=O)NC2(C(F)(F)F)Oc3ccc(Cl)cc3O2)n1 (stereo not drawn) |  | inconclusive [inhibitor, partial curve, poor fit]
10 | COC(=O)CC1C(=O)NC2CCCCC2N1C(=O)CCl (stereo not drawn) |  | active: 6.31 µM
11 | Cc1cc(C)c2c(NC(=S)NC(=O)c3ccccc3)nn(C)c2n1 |  | inconclusive [inhibitor, partial curve]
12 | CC(=O)Nc1ccccc1NC(=O)C/C(C)=N/NC(=O)C1CCCCC1 | inactive: 3.62% | 
13 | CN1CCN(c2ccc(Cl)cc2NS(=O)(=O)c2ccccc2Cl)CC1 |  | inconclusive [inhibitor, partial curve]
14 | Cc1ccc2nc(N(Cc3cccnc3)C(=O)CCOc3ccccc3)sc2c1 |  | inconclusive [inhibitor, full curve]
15 | COc1ccc(C(=O)NCC(c2ccc3c(c2)OCO3)N2CCOCC2)cc1OC (stereo not drawn) |  | inconclusive [inhibitor, single point]
16 | CC1CN(C(=S)Nc2cccc(Cl)c2)CC(C)O1 (stereo not drawn) |  | inconclusive [inhibitor, single point]
17 | Cc1cc(OCC(=O)N(Cc2ccco2)c2c(N)n(Cc3ccccc3)c(=O)[nH]c2=O)ccc1Cl |  | inconclusive [inhibitor, partial curve, poor fit]
18 | CCOC(=O)C1=C(Cc2ccc(F)cc2)C(=O)c2ccccc2C1=O |  | inconclusive [inhibitor, full curve]
